The source of these data is PMC12136788.

The list shows a part of the results.

B1: chr4:41955281:41955382:+|3pUTR|ENSG00000109133|msi1|FALSE|unique (ssRNA)
RNA: GGGAGUUCUACAGUCCGACGAUCGUAGGGGGAGGAGUUGUGGGGGAAUAAUGUGCAUUUCAGUCUCAACGCAUAGAUAAAUUUAGGGGAAUUGGAUGUAUUAUUCAACUUUGAUUUGGGUUGUAAAAUGUGUUAAAUCCUGUUCAACAGAGGAUUGAGCAUCA
B2: chr19:10133403:10133440:-|3pUTR|ENSG00000130816|msi1_unk|total|mutant (ssRNA)
RNA: GGGAGUUCUACAGUCCGACGAUCUUUUUUAUUAUGCAUUAUAUCAAAUCUACCACUGUAUGAGUGGAAAUUAAGACUUUAUGCCGUUUUUAUAUGUUGUAAUAUUUCUUCAAAUAAAUCUCUCCUAUAAACCACCCUGGGUGGCAACAGAGGAUUGAGCAUCA
B3: chr8:93923365:93923466:+|CDS|ENSG00000164951|msi1|total|mutant (ssRNA)
RNA: GGGAGUUCUACAGUCCGACGAUCGCAGGAUGUGGUCCGGAUUGUGGGUGAGUACCUAACUGGCAUGCAUCACCAACAGCCAACCGCUGUUGGUGGCUACAAGGUGACUCUGGGACAGAUGCAUGGCCUUUUAACAGAAAGGAGCAACAGAGGAUUGAGCAUCA
B4: chr1:45003092:45003193:-|3pUTR|ENSG00000126107|msi1|total|mutant (ssRNA)
RNA: GGGAGUUCUACAGUCCGACGAUCGGAAUCUUCCACAAGCCCAGCACAAGCUGCCAGGCCUGAGCUACUUGAAGGGGGCCAUCCCGGUCCCCAACCCAUGGACUUUGCCUCCAUUUUCAGCUCCGCCUUUUUUCUCCUAUUUUCCAACAGAGGAUUGAGCAUCA
B5: chrX:101163201:101163302:+|3pUTR|ENSG00000102384|unk|total|mutant (ssRNA)
RNA: GGGAGUUCUACAGUCCGACGAUCUCAUCAUCAGGCUCUGCGUUCUACCAAAUUGUAUGUAAAAAGACACAUCUGUUUUGUGGCCGGAUUUUUUCACAUUUUUGGGUACUAUGAGCUGCAUUGAUGGAAGACAGCAGGCAAUAUCAACAGAGGAUUGAGCAUCA
B6: chr5:60870179:60870280:-|3pUTR|ENSG00000049167|unk|total|mutant (ssRNA)
RNA: GGGAGUUCUACAGUCCGACGAUCUCUCCUUGCCCUUUUUGUUUUGUUUUGUUUCAAUUCUCCGAACUGCCGUUGGCAUGCCGCCGGUGCUUAAUAAUUACUUGUUUUGUUGUUUCUGUCCUAUACUUUGAGAGUUUGUGUUUGCAACAGAGGAUUGAGCAUCA
B7: chr11:108172639:108172748:-|CDS|ENSG00000149308|unk|total|mutant (ssRNA)
RNA: GGGAGUUCUACAGUCCGACGAUCGUUAUCAUCCGUGAUGAUCCAUUUGUUUCCUCAGAUACUGAACUUACCAGUGCUGUUUCCCGUAUUAAUGGAGAAAACCUGCCAACUAUAAUCUUGUCUUCUCCUACUAAAUCACCUACUCAACAGAGGAUUGAGCAUCA
B8: chr8:142872356:142874372:-|three_prime_utr|ENSG00000160882|control|control|control (ssRNA)
RNA: GGGAGUUCUACAGUCCGACGAUCUUCCUGAGUCACCCCUCUGUCUAACCAGCCCCAGCACAAAUGGAACUCCCGAGGGCCUCUAGGACCAGGGUUUGCCAGGCUAAGCAGCAAUGCCAGGGCACAGCUGGGGAAGAUCUUGCUCAACAGAGGAUUGAGCAUCA
B9: chr11:95167508:95167609:-|3pUTR|ENSG00000149212|unk|FALSE|unique (ssRNA)
RNA: GGGAGUUCUACAGUCCGACGAUCAAUAAUGGAGACUGAAUGAGGCGGUUUGUAUUAAAUUAUAUGCCAUGAAGUGUUCAUUUUAGCUUUAACCUAAUUAUGACUGUACCACCAUGAAGUACAGAAUGAAAAAUUAUAUAUAUGCAACAGAGGAUUGAGCAUCA
B10: chr3:160434497:160434598:+|3pUTR|ENSG00000113810|msi1|FALSE|bound_elsewhere (ssRNA)
RNA: GGGAGUUCUACAGUCCGACGAUCUUUAUGAUAGGUUUAUCCGGGUACUAAAUGCAUUUCAACUUGAUAGUUUCAACUUAUGAUAGGUUUACCAGGAUGUAGUCCCACUGUUGAGGAGCAUCUAUUUAGGGGUUAAUUACUUUACAACAGAGGAUUGAGCAUCA
B11: chr1:204551843:204551944:+|3pUTR|ENSG00000198625|unk|FALSE|unique (ssRNA)
RNA: GGGAGUUCUACAGUCCGACGAUCAGUGUUCCUGGAAUCUCUAUGCAAGUUUUAUACAGAACAUACUUUUGGAAUCCUUGCCCUAGACAGGGGUGUCCAAUCUUUUGGCUUCCCUGGUCCACAAUGGAAGAAGAAUUGUCUUGGCAACAGAGGAUUGAGCAUCA
B12: chr9:74999729:74999870:-|CDS|ENSG00000156017|control|control|control (ssRNA)
RNA: GGGAGUUCUACAGUCCGACGAUCAGUAAAUAUUCUGGUACCUGGUGCUGGACUAGGAAGACUGGCCUGGGAAAUAGCUAUGCUAGGUUAUGCUUGUCAAGGAAAUGAAUGGAGUUUUUUUAUGCUCUUUUCUUCCAACUUUGUCAACAGAGGAUUGAGCAUCA
B13: chr3:44647099:44647200:+|3pUTR|ENSG00000186448|msi1|total|mutant (ssRNA)
RNA: GGGAGUUCUACAGUCCGACGAUCAUUUGUAUGUAAACUACAUAAAGAACUUUCCAAAUUUAACAGUAAUAAGUAAAUACAAUCCGAAAAUAAGCAAAAGACAGACAUUUCACUGAAGUACCGACCGCAAAUAAGCAAAUGAAACAACAGAGGAUUGAGCAUCA
B14: chr10:110898111:110898227:+|3pUTR|ENSG00000150593|unk|FALSE|bound_elsewhere (ssRNA)
RNA: GGGAGUUCUACAGUCCGACGAUCAUAAGAACUCUUGCAGUCUUAGAUGUUAUAAAAAUAUAUAUCUGAAUUGUAAGAGUUGUUAGCACAAGUUUUUUUUUUUUUUUUUUUUAAGCACUUGUUUUGGGUACAAGGCAUUUCUGACAACAGAGGAUUGAGCAUCA
B15: chr7:76328962:76329048:-|3pUTR|ENSG00000170027|msi1_unk|total|mutant (ssRNA)
RNA: GGGAGUUCUACAGUCCGACGAUCACCUGAGGUCUCAUUCAUCCUUAUGGUUCCGGCCUUGCCAGUUUUCCGAAGUCUCUGAUCCGUUGACAGUAUUAACACUAAAUUGCAGUUUACAGUAUUUCUACAUUACAGCCAUAUGUACAACAGAGGAUUGAGCAUCA
B16: chr10:110133424:110133536:+|CDS|ENSG00000148700|unk|FALSE|bound_elsewhere (ssRNA)
RNA: GGGAGUUCUACAGUCCGACGAUCGCAUGAUGUUGAAGAUGAGCUUGCUAAGCGAGUGAGUAGGUUAAGCACAAGUACAACCAUAGAAAACAUCGAGAUUACUAUUAAGUCUCCAGAGAAAAUCGAAGAAGUCCUGUCACCUGACAACAGAGGAUUGAGCAUCA
B17: chr5:113019263:113019364:+|3pUTR|ENSG00000172795|msi1|FALSE|unique (ssRNA)
RNA: GGGAGUUCUACAGUCCGACGAUCCUCAACUGUGAAUGAAAUUUAGAAAGAUAAUUCUUCAGCAGUUGGUUGAUUAGAUGGGUUAGUGCUUUUGGAAUAUAUAACAGUAGACUUGUAUUCUUUAUGCACUAUACAUAUGAUACGCAACAGAGGAUUGAGCAUCA
B18: chr3:58425360:58425463:+|3pUTR|ENSG00000168297|unk|total|mutant (ssRNA)
RNA: GGGAGUUCUACAGUCCGACGAUCAGACAGCUCCCCGAAACAUUCCUCUUACAGUUCAUUUCUCUAAAGCAUUUUCUGAUUCUCCGAUAACUCCAAUUUUUGCUACCUUUAUCUCCGACAUUAACACUACCGCCCAAAGCACCGCAACAGAGGAUUGAGCAUCA
B19: chr10:100209595:100209696:-|CDS|ENSG00000213341|unk|total|mutant (ssRNA)
RNA: GGGAGUUCUACAGUCCGACGAUCACUUCUUUCAGAGACAGGAAUUUCUCUGGAUCCUCGGAAACCAGCCUCUCAAUGUGUUCCCGAUGGAGUUGUAAGAAAAUUAAUUAUAAUAUCCCCCGAGUAUGUGAAAUCCCGAGGGAUCAACAGAGGAUUGAGCAUCA
B20: chr7:122320167:122320338:-|CDS|ENSG00000081803|control|control|control (ssRNA)
RNA: GGGAGUUCUACAGUCCGACGAUCUGUGUUGGAAGGAACACUGAACAGUAAGACUUAUGAUACUGUGCACAGACGUUUAACAGUAGAGGAGGCCACAGCCUCUGUUUCAGAAGGAGGAGGACUUCAGGGCAUUACUAUGAAAGACAACAGAGGAUUGAGCAUCA
B21: ENSG00000119401:stop:overlap|stop_codon|ENSG00000119401|stop_codon|NA|stop_codon (ssRNA)
RNA: GGGAGUUCUACAGUCCGACGAUCACUGUUGGGAUCAUUGCAUCAAGAUCUACAGCUACCAUCUGAGAAGAUAUUCCACCCCAUAGGGGAUGAGAAAUUAUCAGUUUCUUCUGCUCCCAAGCCAACUUCCCUUCCCUUAGUUCUCAACAGAGGAUUGAGCAUCA
B22: chr12:105021166:105021267:-|3pUTR|ENSG00000136010|unk|FALSE|unique (ssRNA)
RNA: GGGAGUUCUACAGUCCGACGAUCAGUCAGACAGUGUCACUUCACUCGUCUGUUUAAAACCUUUCAAUGGCCCCCAUUUCACGUAGACCAAAGUCCAACGUAUUUACCUGGCCUACUGAUCUUGCUCCUAGCUACCUCUGACCUCAACAGAGGAUUGAGCAUCA

This assay has as its target MSI1 full-length (mouse, UniProt Q61474 1-362). The assay can be described thus: nsRBNS (natural sequence RNA bind-n-seq); RBNS binding buffer (assumed for nsRBNS): 25 mM Tris pH 7.5, 150 mM KCl, 3 mM MgCl2, 0.01% Triton X-100, 500 ug/ml BSA, 20 U/ml SUPERase-In, 4 C; UNK is unkempt and MSI1 is Musashi-1; names of the RNAs are library labels; protein concentration not given here; high values mean tight binding.
Sequence of UniProt Q61474 (Q61474 whole entry): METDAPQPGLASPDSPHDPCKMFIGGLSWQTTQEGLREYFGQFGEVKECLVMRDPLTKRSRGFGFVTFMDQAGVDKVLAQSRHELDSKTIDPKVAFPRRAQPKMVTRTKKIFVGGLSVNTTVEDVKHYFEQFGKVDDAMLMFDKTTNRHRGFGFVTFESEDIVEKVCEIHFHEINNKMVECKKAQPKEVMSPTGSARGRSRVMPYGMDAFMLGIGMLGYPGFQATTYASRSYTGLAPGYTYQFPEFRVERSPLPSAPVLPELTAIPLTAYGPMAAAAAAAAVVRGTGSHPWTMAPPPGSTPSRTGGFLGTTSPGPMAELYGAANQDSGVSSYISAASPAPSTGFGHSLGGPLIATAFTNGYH
The molecule B1 registered a binding signal of 9 enrichment R.

The molecule B2 returned a binding signal of 1.75 enrichment R.

B3 had a binding signal of 0.41 enrichment R.

The molecule B4 registered a binding signal of 0.44 enrichment R.

Turning to B5, the binding signal was found to be 0.214 enrichment R.

B6 returned a binding signal of 1.79 enrichment R.

Consider B7, for which the binding signal came out at 0.428 enrichment R.

In turn, B8 yielded a binding signal of 0.585 enrichment R.

With B9, the binding signal amounted to 3.55 enrichment R.

For the molecule B10, the binding signal was found to be 3.41 enrichment R.

The molecule B11 showed a binding signal of 0.363 enrichment R.

B12 had a binding signal of 0.468 enrichment R.

B13 showed a binding signal of 19.7 enrichment R.

The molecule B14 gave a binding signal of 1.69 enrichment R.

The molecule B15 showed a binding signal of 1 enrichment R.

For B16, the binding signal was 1.04 enrichment R.

Regarding B17, the binding signal is 1.92 enrichment R.

B18 registered a binding signal of 1.78 enrichment R.

Consider B19, for which the binding signal was determined as 0.439 enrichment R.

B20 came in with a binding signal of 0.605 enrichment R.

For the molecule B21, the binding signal amounted to 0.384 enrichment R.

Consider B22, for which the binding signal amounted to 0.427 enrichment R.
